Laboratory results published in ChEMBL document CHEMBL1201862, “PubChem BioAssay data set” (2004).
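Briefly, cells in 96-well plates were exposed to five compound concentrations for 48 h, and endpoints were estimated by linear interpolation. At the GI50, growth is halved.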 The source made the active and inactive calls. Cut-off read from the data, not from the text of the source: active = GI50 up to about 1.1 µM and inactive = higher.

Columns and labels:
Test in all cases: DTP human tumour cell line panel, 48 h
A498 = test system: A498
A549 = test system: A549
ACHN = test system: ACHN
BT-549 = test system: BT-549
CAKI-1 = test system: CAKI-1
CCRF-CEM = test system: CCRF-CEM
COLO 205 = test system: COLO 205
DU-145 = test system: DU-145
EKVX = test system: EKVX
HCC 2998 = test system: HCC 2998
HCT-116 = test system: HCT-116
HCT-15 = test system: HCT-15
HL-60 = test system: HL-60
HOP-62 = test system: HOP-62
HOP-92 = test system: HOP-92
HT-29 = test system: HT-29
Hs-578T = test system: Hs-578T
IGROV-1 = test system: IGROV-1
K562 = test system: K562
KM12 = test system: KM12
LOX IMVI = test system: LOX IMVI
M14 = test system: M14
MCF7 = test system: MCF7
MDA-MB-231 = test system: MDA-MB-231
MDA-MB-435 = test system: MDA-MB-435
MDA-N = test system: MDA-N
MOLT-4 = test system: MOLT-4
Malme-3M = test system: Malme-3M
NCI-H226 = test system: NCI-H226
NCI-H23 = test system: NCI-H23
NCI-H460 = test system: NCI-H460
NCI-H522 = test system: NCI-H522
OVCAR-3 = test system: OVCAR-3
OVCAR-4 = test system: OVCAR-4
OVCAR-5 = test system: OVCAR-5
OVCAR-8 = test system: OVCAR-8
PC-3 = test system: PC-3
RPMI-8226 = test system: RPMI-8226
RXF 393 = test system: RXF 393
SF-268 = test system: SF-268
SF-295 = test system: SF-295
SF-539 = test system: SF-539
SK-MEL-28 = test system: SK-MEL-28
SK-MEL-2 = test system: SK-MEL-2
SK-MEL-5 = test system: SK-MEL-5
SK-OV-3 = test system: SK-OV-3
SN12C = test system: SN12C
SNB-19 = test system: SNB-19
SNB-75 = test system: SNB-75
SW-620 = test system: SW-620
TK-10 = test system: TK-10
U-251 = test system: U-251
UACC-257 = test system: UACC-257
UACC-62 = test system: UACC-62

Measured: GI50

O=C(/C=C/c1ccccc1)Nc1ccccc1Cl [N-(2-CHLOROPHENYL)CINNAMAMIDE]
inactive: A498 = > 100 µM | A549 = > 100 µM | ACHN 72.4 µM | BT-549 = > 100 µM | CAKI-1 = > 100 µM | CCRF-CEM > 100 µM | COLO 205 = > 100 µM | DU-145 = 94.8 µM | EKVX 56.4 µM | HCC 2998 = 36.6 µM | HCT-116 = > 100 µM | HL-60 = 8.04 µM | HOP-62 = 35.1 µM | HOP-92 = 23.7 µM | HT-29 = > 100 µM | Hs-578T 16.5 µM | IGROV-1 = 41.1 µM | K562 = 94.8 µM | KM12 = 70.8 µM | LOX IMVI > 100 µM | M14 = > 100 µM | MCF7 = 4.11 µM | MDA-MB-231 = 35.9 µM | MDA-MB-435 = > 100 µM | MDA-N > 100 µM | MOLT-4 = 33.7 µM | Malme-3M > 100 µM | NCI-H226 = > 100 µM | NCI-H23 = > 100 µM | NCI-H460 = > 100 µM | NCI-H522 = 8.24 µM | OVCAR-3 = 86.3 µM | OVCAR-4 = 44.9 µM | OVCAR-5 = > 100 µM | OVCAR-8 = 83.4 µM | PC-3 = 97.1 µM | RPMI-8226 = 27.5 µM | RXF 393 = 48 µM | SF-268 = > 100 µM | SF-295 = 42.1 µM | SF-539 = 48.4 µM | SK-MEL-28 = > 100 µM | SK-MEL-2 = > 100 µM | SK-MEL-5 = 95.7 µM | SK-OV-3 = 46.6 µM | SN12C > 100 µM | SNB-19 = > 100 µM | SNB-75 = 35.8 µM | SW-620 = > 100 µM | TK-10 = > 100 µM | U-251 = 59.8 µM | UACC-257 = > 100 µM | UACC-62 = > 100 µM
> 100 µM: HCT-15
